In PMC7321149 (Molecules, 2020):
Like-named read-outs stand apart in the source and are kept apart here.

Columns and labels:
Test in all cases: Leishmania high content assay, intracellular amastigotes in PMA-differentiated THP-1 macrophages
[1] = tested on: L. braziliensis; format: cell-based, Leishmania braziliensis (MHOM/BR/1975/M2903); settings: confirmatory dose-response, mean of two independent experiments, pEC50 = -log EC50 (M)
Method: (§1) THP-1 cells were plated onto 384-well assay plates (7000 cells/well, 25 μL) in RPMI complete media containing 50 ng/mL phorbol 12-myristate 13-acetate (PMA) and incubated at 37 °C/5% CO2 for 48 h. Cells were then infected with stationary-phase promastigotes at a multiplicity of infection (MOI) of 50 by adding 25 μL RPMI (without PMA reagent), containing 1.4 × 10^7 parasites/mL. After 24 h of incubation at 37 °C (34 °C for cutaneous species), negative control-vehicle (0.5% DMSO), the positive control (10 μM amphotericin B), and compounds were added to the plate at a volume of 10 μL/well, bringing the total volume to 60 μL/well. For the primary screenings, compounds from the LOPAC library were tested at a concentration of 50 µM. […] Assay plates were incubated at 37 °C or 34 °C/5% CO2. After 96 h of compound exposure, assay plates were fixed with paraformaldehyde (PFA) by adding 30 μL of 12% PFA in PBS, pH 7.4, followed by incubation for 15 min at room temperature. Plates were then washed three times with 50 μL of PBS, pH 7.4, and stained with 10 μL/well of 5 μM Draq5 in PBS, pH 7.4, for at least two hours before imaging.
(§2) Plates were imaged in Operetta High Content Imaging System (Perkin Elmer), version 3.1, at a 20× magnification and filters optimized for far-red fluorescence (fluorescence filter: […]). A total of four images were acquired per well, which corresponded to 600–800 cells analyzed per condition. Quantitative readouts of the infection (total THP-1 cell number, total number of infected THP-1 cells, and number of parasites (spots) per infected cell) were determined by custom analysis building blocks in Columbus image analysis software (Perkin Elmer). Briefly, host nuclei and cells were segmented based on DNA staining, followed by the detection of individual parasites also based on DNA staining. Infected cells were determined as cells with one or more spots in the cytoplasmatic area. Details of the analysis workflow are described in the (Supplementary Information (Figure S4 and Table S1).
(§3) HCS data were analyzed as previously described^29. Briefly, the ratio of infected cells to the total number of cells was determined as the infection ratio (IR). The raw data for IR values was normalized to the negative (DMSO-treated infected cells) and positive (non-infected cells) controls to determine the normalized antiparasitic activity, expressed as a percentage in comparison to control wells. The cellular ratio was determined as the proportion between the host cell number in compound-treated wells and the mean cell number in infected control wells. […] Groups of different samples were analyzed using the ANOVA test followed by Tukey’s multiple comparison test. […]

[2] = tested on: L. donovani; format: cell-based, Leishmania donovani (MHOM/IN/1980/DD8)
Method: as §1, §2, §3

[3] = tested on: L. amazonensis; format: cell-based, Leishmania amazonensis (MHOM/BR/1977/LTB0016); settings: confirmatory dose-response, mean of two independent experiments, pEC50 = -log EC50 (M)
Method: as §1, §2
HCS data were analyzed as previously described^29. Briefly, the ratio of infected cells to the total number of cells was determined as the infection ratio (IR). The raw data for IR values was normalized to the negative (DMSO-treated infected cells) and positive (non-infected cells) controls to determine the normalized antiparasitic activity, expressed as a percentage in comparison to control wells. The cellular ratio was determined as the proportion between the host cell number in compound-treated wells and the mean cell number in infected control wells. Plates were submitted to quality control analysis using the Z’-factor^53 and only plates with Z’-factor > 0.5 were considered for further analysis. Groups of different samples were analyzed using the ANOVA test followed by Tukey’s multiple comparison test. Studies of correlation were performed using Pearson or Spearman tests. […] Dose–response data were processed with the Graphpad Prism software, version 6, using the sigmoidal dose–response (variable slope) nonlinear curve fitting function.

[4] = THP-1, confirmatory dose-response, mean of two independent experiments, pEC50 = -log EC50 (M), read-out: pEC50 M L. d (converted)

Work on `CN1CCC(=C2c3ccccc3C=Cc3ccccc32)CC1` [Cyproheptadine] yielded an EC50 [1] of 4.07e-05 M.

In the case of `CN(C)C(=O)C(CCN1CCC(O)(c2ccc(Cl)cc2)CC1)(c1ccccc1)c1ccccc1` [Loperamide], the EC50 ([2]; THP-1, read-out: pEC50 M L. d (converted)) is reported as 2.69e-05 M.

Molecule `Clc1ccc2c(c1)C(N1CCNCC1)=Nc1ccccc1O2` [Amoxapine] has an EC50 [1] of 3.09e-05 M and an EC50 [3] of 3.8e-05 M.

`OCCN1CCN(CCCN2c3ccccc3Sc3ccc(C(F)(F)F)cc32)CC1` [Fluphenazine] showed an EC50 [2, 4] of 3.8e-05 M and an EC50 [3] of 3.8e-05 M.

`CNCCCC12CCC(c3ccccc31)c1ccccc12` [Maprotiline] gave an EC50 [2, 4] of 2.75e-05 M, an EC50 [1] of 3.16e-05 M and an EC50 [3] of 3.63e-05 M.

Molecule `CN1[C@@H]2CC[C@H]1C[C@@H](OC(c1ccccc1)c1ccccc1)C2` [Benztropine] has an EC50 [1] of 2.88e-05 M and an EC50 [3] of 3.24e-05 M.

With `CSc1ccc2c(c1)N(CCC1CCCCN1C)c1ccccc1S2` (stereo not shown) [Thioridazine] the EC50 [2, 4] was 2.63e-05 M.

In the case of `CN(C)CCCN1c2ccccc2CCc2ccc(Cl)cc21` [Clomipramine], the EC50 [3] is reported as 3.63e-05 M.
